Test results from the antibiotic and cytotoxicity screens of Wong et al. (2023).
Some of the results follow.

The compounds below were run on S. aureus RN4220 (assay: growth inhibition call (relative growth <= 0.2)). Settings: 50 µM.

Growth inhibition call, inactive:
C[C@H](CO)N1C[C@H](C)[C@@H](CN(C)C(=O)NC2CCCCC2)OCCCC[C@H](C)Oc2ccc(NS(=O)(=O)c3ccccc3)cc2C1=O
C[C@@H]1CN([C@H](C)CO)C(=O)Cc2cc(NS(=O)(=O)c3ccc(F)cc3)ccc2O[C@H]1CN(C)C(=O)Nc1cccc2ccccc12
C[C@@H]1CCCCO[C@H](CN(C)S(=O)(=O)c2ccc(Cl)cc2)[C@H](C)CN([C@@H](C)CO)C(=O)c2cc(NC(=O)C3CCCCC3)ccc2O1
COc1ccc(S(=O)(=O)N[C@@H]2C=C[C@@H](CC(=O)N3CCC(Cc4ccccc4)CC3)O[C@H]2CO)cc1
O=C(C[C@@H]1C[C@@H]2c3cc(NC(=O)C4CCOCC4)ccc3O[C@@H]2[C@@H](CO)O1)NCc1cc(F)ccc1F
N#Cc1cccc(NCCN2CCNC2=O)n1
CC(/C=C/C(=O)NO)=C\c1ccccc1OCc1cn(CC[C@@H]2OC(=O)[C@H](Cc3ccccc3)N3CC4=C[C@@H](C5CC5)n5c(=O)n(C)c(=O)n5[C@H]4[C@H]23)nn1
C[C@@H]1CN([C@H](C)CO)C(=O)CCCn2nncc2CO[C@@H]1CN(C)S(=O)(=O)c1ccc(-c2ccccc2)cc1
Cc1ccc(S(=O)(=O)N(C)C[C@@H]2Oc3ccc(NS(=O)(=O)c4cn(C)cn4)cc3CC(=O)N([C@H](C)CO)C[C@H]2C)cc1
C[C@H](CO)N1C[C@H](C)[C@H](CN(C)CC2CC2)OCCCC[C@H](C)Oc2ccc(NC(=O)CCC(F)(F)F)cc2C1=O
COCc1cn(CC[C@@H]2CC[C@H](NC(=O)CCN3CCCCC3)[C@@H](CO)O2)nn1
Cc1cn2c3c(=O)n(C)c(=O)n(C)c3nc2n1CCN1CCOCC1
